# Data from ChEMBL document CHEMBL1157539, “Thousands of chemical starting points for antimalarial lead identification” (Nature, 2010).
# In all, about 13,000 compounds were measured (“IFI”: median about 4, highest 2% from about 17 on). The list shows a part of the results.
# Assay: GSK_TCMDC: Inhibition Frequency Index (IFI). The number of non-kinase HTS assays where a compound showed > 50 % inhibition, expressed as a percentage of the number of such assays in which the compound was tested (-0 is zero)
# Assay type: functional
row,Structure (SMILES),IFI [%]
1,CCOc1ccc(S(=O)(=O)N(C)c2ccc(OCC(=O)Nc3nccs3)cc2)cc1,2.1
2,COc1cc2c(C3CCN(CC4CCC(NC(=O)/C=C/c5ccc(Cl)c(Cl)c5)CC4)CC3)c[nH]c2cn1 (stereo not given),1.54
3,C[C@H](Nc1c(Nc2ccc3[nH]ccc3c2)c(=O)c1=O)C1CCCCC1,5.22
4,Cc1cccc2nc(-c3cccc(-c4ccc(NC(=O)Nc5ccc(Cl)cc5)cc4)c3)[nH]c12,5
5,CN1CCCN(Cc2cccc(-c3cccc(NC(=O)c4cccc(Cl)c4)c3)c2)CC1,3.85
6,CC(NC(=O)c1ccc(O)c(-c2ccc(Cl)c(Cl)c2)c1)C(=O)NC1CCCCC1 (stereo not given),4.41
7,Cc1nnc2c(NC(=O)NC3CCCC3)cc3cc(-c4ccc(CN(C)C)cc4)ccc3n12,10.8
8,CCCCCOc1ccc(C(O)C(CN2CCCCC2)c2ccccc2)cc1 (stereo not given),2.27
9,COc1ccc(Cc2nc(/N=C(\N)Nc3ccccc3)ccc2OC)cc1,22.6
10,c1ccc(Oc2ccc(Nc3ccnc4cc(-c5csc(CN6CCCCC6)n5)ccc34)cc2)nc1,6.72
11,O=C(Nc1ccc2oc(-c3ccc(Cl)cc3Cl)nc2c1)c1ccc([N+](=O)[O-])o1,2.05
12,Nc1nc(N)c2cc(C(F)(F)F)ccc2n1,1.65
13,COc1ccc(CCNCc2cc3c(C(C)(C)C)nn(-c4ccc(Cl)cc4)c3[nH]c2=O)cc1OC,10.3
14,c1ccc2c(NCCc3c[nH]cn3)c3ccccc3nc2c1,7.62
15,Cc1cccc(C(=O)Nc2ccnc(N(C)CCCN(C)Cc3cccc(O)c3)c2)c1,5.41
16,Cc1noc(C)c1-c1cccc(CNCc2ccc(-c3cccc(-c4nc5cc(F)ccc5[nH]4)c3)cc2)c1,1.94
17,CN(C)CCOc1ccc(-c2cc(-c3ccc(Cl)c(O)c3)c(-c3ccncc3)[nH]2)cc1,4.03
18,CC(=O)Nc1ccc(OCCCCN(Cc2ccccc2OC(F)(F)F)c2ccc(C(F)(F)F)c(C#N)c2)c(Cl)c1,0
19,COc1ccc(CNCc2ccc(F)cc2)cc1-c1ccc(S(=O)(=O)NCCN2CCCC2)c(C)c1,14.7
20,CCOC(=O)C(NC(=O)Cc1ccccc1)C(C)C (stereo not given),1.52
21,O=C(NCCc1cccc(Cl)c1Cl)c1cnc(N2CCN(c3ccncc3)CC2)c(Cl)c1,20
22,COc1ccc(Oc2ccc(-c3c(C)[nH]c(C)c(Cl)c3=O)cc2)cc1,2.7
23,COc1cc2nc(NCCc3ccccc3)nc(NCc3cnn(C)c3C)c2cc1OC,3.08

row,Structure (SMILES),IFI [%]
1,O=C(/C=C/c1ccc(Cl)c(Cl)c1)NCCCCCN1CCC(NC(=O)Nc2ccc(Cl)cc2Cl)CC1,9.33
2,COc1cccc(C(=O)C2CC2CN(C)CC(O)c2cc(C)c(OC)cc2C)c1 (stereo not given),0.88
3,CC(=O)NCCNc1nccc(N2CCc3ncnc(Nc4ccc(OCc5ccccn5)c(Cl)c4)c3C2)n1,2.21
4,Oc1ccccc1CNCC12CC3CC(CC(C3)C1)C2,0.72
5,O=C(/C=C/c1ccc(Cl)c(Cl)c1)NCCCCCN1CC[C@H](NC(=O)/C=C/c2ccccc2)C1,5.3
6,COc1ccc(NC(=O)c2ccc(C=Cc3ccc(C(F)(F)F)cc3)cc2)cc1N1CCN(C)CC1,9.43
7,N=C(N)Nc1nc(-c2cccc(NC(=O)NCCc3c[nH]c4ccc(OCc5ccccc5)cc34)c2)cs1,5.38
8,Cc1cc(-c2cnc(N)c(-c3ccc(N4CCN(C)CC4)cc3)c2)cc(C)c1O,3.45
9,CN(CCCN(C)c1cc(NC(=O)c2cccc(F)c2)ccn1)Cc1cccc(O)c1,-0
10,CCCCc1ccc(-c2c(N)nc(N)nc2CC)cc1,3.65
11,O=C(Nc1ccc(-c2csc(-c3nc4ccccc4[nH]3)c2)cc1)Nc1ccc(F)c(F)c1F,1.96
12,CC[C@H](C)[C@H](NC(=O)[C@H](CC1CCCCC1)[C@H](CC)N(O)C=O)C(=O)Nc1ccccn1,2.94
13,Cc1nc(N)nc(N)c1OCCCOc1ccccc1Br,3.03
14,CN(C)c1ccc(-c2ccc(C(=O)NC3CCN(Cc4ccccc4)CC3)s2)cc1,5.45
15,CCCC(=O)Nc1ccc(Cl)c(NC(=O)COc2cc(C)ccc2C(C)C)c1,1.39
16,O=C(Nc1ccc(OC(F)(F)F)cc1)NC1CCN(c2ccnc3ccccc23)CC1,10.4
17,Cc1[nH]c2ccccc2c1C(=O)CSc1nn(-c2ccccc2)c(=S)s1,0
18,CC(C)c1sc(N2CCN(C)CC2)nc1C(=O)NCCc1ccc(Cl)c(Cl)c1,-0
19,COc1cc(C=NNc2cc(C)nc3c(OC)cccc23)cc(OC)c1OC,2.22
20,CC(C)(C)Nc1cc(C(=O)N[C@@H](Cc2ccccc2)[C@H](O)CNC2CCOCC2)cc(N2CCCCS2(=O)=O)c1,0
21,Cc1cc(NC(=O)c2cc(Br)ccc2Cl)n(-c2nc(C)c(C)c(=O)[nH]2)n1,9.8
22,COc1ccccc1NC(=O)Nc1ccc(-c2cccc(-c3nc4ccccc4[nH]3)c2)cc1,4
23,O=C1C2C3SC(c4c3ccc3ccccc43)C2C(=O)N1c1ccccc1 (stereo not given),1.52

row,Structure (SMILES),IFI [%]
1,Cc1cc(CNC(=O)c2ccc(-c3ccc(-c4nc5cc(C(F)(F)F)ccc5[nH]4)s3)cc2)on1,0.95
2,CCCCCCNC(=N)c1ccc(OCCCCCOc2ccc(C(=N)NCCCCCC)cc2)cc1,12.3
3,CCCn1cnc2cc(C(=O)Nc3ccc(-c4cccc(CN(C)C)c4)cc3)ccc2c1=O,3.81
4,Cc1cccc(C(=O)Nc2ccnc(N3CCC(N(C)Cc4cccc(O)c4)CC3)c2)c1,0
5,CO/C(=C\C=C\c1cc2cc(Cl)c(Cl)cc2[nH]1)C(=O)NC1CC2CCC(C1)N2C (stereo not given),16.4
6,CC(C)N(Cc1ccc(-c2ccc(C(F)(F)F)cc2)cc1)C(=O)Cn1c(SCc2cccc(F)c2F)cc(=O)c2cc(CN3CCCCC3)ccc21,11.8
7,CN(/N=C/C=C/c1ccc(Cl)cc1)c1nc(NCCc2ccc(O)cc2)nc(N2CCNCC2)n1,5.11
8,O=C(Nc1ccc(Cl)cc1)Nc1cccc(-c2cc(CNCCc3ccccc3)oc2-c2ccncc2)c1,14.2
9,Cc1cc(N[C@@H](Cc2ccccc2)C(=O)NCc2cccs2)nc(NCCc2ccccc2)n1,11.4
10,O=C(Cc1c[nH]cn1)Nc1ccc(-c2ccc(-c3nc4cc(C(F)(F)F)ccc4[nH]3)s2)cc1,5.56
11,CCC1(c2ccccc2)N=C(N)N(CCCc2ccccc2)C1=O (stereo not given),7.14
12,CCCC(C)Nc1nc(C)cc(N[C@@H](CC(C)C)C(=O)Nc2ccc(OC)cc2)n1 (stereo not given in full),7.69
13,COc1cc(Cc2cnc(N)nc2N)cc(OCCCCC2SC(=O)NC2=O)c1Br (stereo not given),0.73
14,CN(C)CCCN1CCN(C(=O)c2cc3cc(-c4ccccc4)ccc3n2S(=O)(=O)c2ccccc2)CC1,5.41
15,CN(C)CCNC(=O)c1cc2c(-c3ccc(Cl)cc3)nn(C)c2s1,3.64
16,COc1ccc(C2CCC(NCCCCNC(=O)c3ccc(NC(=O)c4ccc(Cl)cc4)cc3)CC2)cc1 (stereo not given),3.57
17,N#Cc1ccc(-c2nc3c(N4CCCC4)cccc3n2CCNCc2ccccc2)cc1,6.9
18,CC1CCN(c2nc(C(=O)Nc3cccc4c3CCCC4)c(C(C)C)s2)CC1,8.82
19,CCOc1ccc(C2CCN(CCCCNC(=O)c3ccc(NC(=O)c4ccc(Cl)cc4)cc3)CC2)c(CC)c1,0.76
20,CCNC1=NC2=C(CC(C(C)(C)C)CC2)C2(CCC(C(C)(C)C)CC2)S1 (stereo not given),6.52
21,CN(C)c1ccc(C=C2SC(=O)N=C2Nc2ccccc2)cc1,2.76
22,Clc1cccc(C=NN=c2cc[nH]c3ccccc23)c1,-0
23,Cc1c(OC(C)C)nc2ccccc2c1C(=O)N[C@H](c1cccc(F)c1)C1CC1,1.54

row,Structure (SMILES),IFI [%]
1,COc1ccc(-c2ccc(S(=O)(=O)Nc3cc4c(cc3OC(C)C)CCNCC4)cc2)cc1,9.29
2,O=C(N[C@@H](Cc1ccccc1)CN1CCC(Oc2ccc(F)cc2)CC1)c1ccc(OCCCN2CCCCC2)cc1,9.03
3,COc1c(C2CCN(CCCCNC(=O)c3ccc(-c4ccc(C#N)cc4)c(O)c3)CC2)ccc2c1CCCC2,7.34
4,COc1cc(F)c2ncc(C#N)c(CCN3CCC(NCc4ccc5c(c4)OCCO5)CC3)c2c1,3.13
5,COc1cc(CNC[C@@H](O)[C@H](Cc2ccccc2)NC(=O)c2cc(C3CCCC3)cc(N3CCCS3(=O)=O)c2)cc(OC)c1,8.51
6,OCCNc1nc(Nc2ccccc2)nc2ccccc12,1.38
7,COc1cc(Cc2cnc(N)nc2N)cc(CC(C)O)c1O (stereo not given),0
8,COc1ccc(NC(=O)[C@H](Cc2ccccc2)Nc2nc(NCCN3CCCC3)ncc2C)cc1,4.76
9,O=C(NCc1cccc(F)c1)Nc1cccc(-c2cccc(-c3nc4cc(C(F)(F)F)ccc4[nH]3)c2)c1,6.93
10,COC(=O)c1cccc(CNCc2ccc(-c3ccc(-c4nc5cccc(C)c5[nH]4)s3)cc2)c1,7.55
11,CCCc1cc(NC2CCN(C)CC2)nc(Nc2ccc(C)cc2)n1,2.94
12,Cc1cc2cc(/C=C/C(=O)NC3CCC(CCN4CCc5ccc(C#N)cc5CC4)CC3)ccc2[nH]1 (stereo not given),2.27
13,O=C(NCc1cccc2ccccc12)[C@@H]1CCCN1C(=O)c1ccc(O)c(-c2ccc(Cl)c(Cl)c2)c1,0.74
14,CN1CCN(c2ccnc3ccc(NC(=O)Nc4cccc5c(-c6ccncc6)cccc45)cc23)CC1,0
15,Cc1ccc(NC(=O)c2ccc(CN3CCCN(Cc4cccc(O)c4)CC3)cc2)cc1F,9.45
16,O=C(Nc1ccc(-c2ccccc2)cc1)Nc1cccc(Cn2nc(Cl)c(N3CCNCC3)cc2=O)c1,7.69
17,CCOc1ccc(C2CCN(CCCCNC(=O)c3ccc(NC(=O)c4ccc(Cl)cc4)cc3)CC2)c(OCC)c1,0.74
18,Clc1ccc(CNc2ccnc(NCc3ccc4c(c3)OCCCO4)n2)c(Cl)c1,7.69
19,c1cncc(NCc2ccc(-c3cc4ccncc4cc3OC3CCNCC3)s2)c1,3.33
20,CCCCCCNC(=O)C(N)CCCC(N)C(=O)NCCCCCC (stereo not given),1.42
21,O=C(Nc1cccc(CN2CCN(Cc3cccc(O)c3)CC2)c1)c1ccc(Cl)c(Cl)c1,3.97
